Assay results reported in the supplement of paper PMC11876631.
Residue numbers refer to the chain shown, from its start. Names may count otherwise. ± gives the standard deviation of the averaged measurements. Laboratory Escherichia coli strains with one amino-acid change in an essential protein, pooled on minimal glucose agar with carbenicillin or gentamicin at twice the control MIC (plus kanamycin and chloramphenicol for the plasmids), 48 h. Fold change of barcode share against drug-free plates; higher = less susceptible. Active = above 20 in both replicates (the paper's putatively resistant). '<' = one read or none on drug, '>' = one read or none on a drug-free plate. Shares are relative, so most strains fall below 1 when a few take over. Listed are strains with at least 15 reads on both drug-free plates, and hits; most hits rest on fewer reference reads. Replicate rank correlation about 0.5. Edits are read from barcodes.

B1: glmS V97A (protein)
chain: MCGIVGAIAQRDVAEILLEGLRRLEYRGYDSAGLAVVDAEGHMTRLRRLGKVQMLAQAAEEHPLHGGTGIAHTRWATHGEPSEVNAHPHVSEHIVVAHNGIIENHEPLREELKARGYTFVSETDTEVIAHLVNWELKQGGTLREAVLRAIPQLRGAYGTVIMDSRHPDTLLAARSGSPLVIGLGMGENFIASDQLALLPVTRRFIFLEEGDIAEITRRSVNIFDKTGAEVKRQDIESNLQYDAGDKGIYRHYMQKEIYEQPNAIKNTLTGRISHGQVDLSELGPNADELLSKVEHIQILACGTSYNSGMVSRYWFESLAGIPCDVEIASEFRYRKSAVRRNSLMITLSQSGETADTLAGLRLSKELGYLGSLAICNVPGSSLVRESDLALMTNAGTEIGVASTKAFTTQLTVLLMLVAKLSRLKGLDASIEHDIVHGLQALPSRIEQMLSQDKRIEALAEDFSDKHHALFLGRGDQYPIALEGALKLKEISYIHAEAYAAGELKHGPLALIDADMPVIVVAPNNELLEKLKSNIEEVRARGGQLYVFADQDAGFVSSDNMHIIEMPHVEEVIAPIFYTVPLQLLAYHVALIKGTDVDQPRNLAKSVTVE
B2: glmS V97D (protein)
chain: B1 chain with A97D
B3: glmS V97P (protein)
chain: B1 chain with A97P
B4: glmS V97Q (protein)
chain: B1 chain with A97Q
B5: glmS V95A (protein)
chain: B1 chain with V95A, A97V

biological target: Escherichia coli (laboratory strain); experiment: barcode share on antibiotic plates over drug-free plates; higher = less susceptible; settings: antibiotic: carbenicillin; 2× MIC (3.1 µg/mL)
Protocol: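 A pool of E. coli strains, each edited to carry one amino-acid change in an essential protein, was grown for 48 h on minimal glucose agar with or without antibiotic; strain barcodes were sequenced; mean of two replicates.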

Protein	fold change of barcode share
B1	0.358 ± 0.1
B2	0.57 ± 0.46
B3	0.541 ± 0.31
B4	0.291 ± 0.084
B5	0.502 ± 0.16

same assay, conditions: antibiotic: gentamicin; 2× MIC (MIC 0.45 µg/mL)

Protein	fold change of barcode share
B1	0.00634 ± 0.0029
B2	< 0.00386
B3	< 0.00337
B4	< 0.00594
B5	0.00337 ± 8.9e-05
